These are yes or no findings as the source states them, for the method shown. Binding seen in cells or lysates may run through a third protein. Some results given as binding are weak or reduced against the parent protein; the word gives no strength. For part of these data: Tags and fused reporters may be left off the sequences shown.
T1: GST-AF-1 (1–92) (human) (UniProt P10276)
T1 sequence: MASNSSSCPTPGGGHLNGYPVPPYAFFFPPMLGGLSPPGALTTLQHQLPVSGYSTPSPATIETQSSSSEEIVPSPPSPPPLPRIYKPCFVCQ

Amino acid sequences for entries named in this document (tags omitted).
UniProt P42568: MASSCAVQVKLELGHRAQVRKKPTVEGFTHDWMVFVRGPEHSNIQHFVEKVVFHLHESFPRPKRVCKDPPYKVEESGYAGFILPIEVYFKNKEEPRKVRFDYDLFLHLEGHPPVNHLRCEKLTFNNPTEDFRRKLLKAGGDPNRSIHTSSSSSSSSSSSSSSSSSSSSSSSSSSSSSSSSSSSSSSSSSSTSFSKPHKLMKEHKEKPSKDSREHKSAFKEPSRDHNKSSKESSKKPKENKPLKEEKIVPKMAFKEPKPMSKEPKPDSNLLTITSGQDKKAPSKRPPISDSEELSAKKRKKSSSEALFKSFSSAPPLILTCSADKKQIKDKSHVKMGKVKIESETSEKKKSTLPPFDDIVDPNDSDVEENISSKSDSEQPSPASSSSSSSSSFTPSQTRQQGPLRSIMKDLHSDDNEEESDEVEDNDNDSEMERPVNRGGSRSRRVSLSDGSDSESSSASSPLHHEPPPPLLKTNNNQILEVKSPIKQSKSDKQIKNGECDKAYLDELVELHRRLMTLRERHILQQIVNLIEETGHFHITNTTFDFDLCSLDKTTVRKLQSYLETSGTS
UniProt A2AM29: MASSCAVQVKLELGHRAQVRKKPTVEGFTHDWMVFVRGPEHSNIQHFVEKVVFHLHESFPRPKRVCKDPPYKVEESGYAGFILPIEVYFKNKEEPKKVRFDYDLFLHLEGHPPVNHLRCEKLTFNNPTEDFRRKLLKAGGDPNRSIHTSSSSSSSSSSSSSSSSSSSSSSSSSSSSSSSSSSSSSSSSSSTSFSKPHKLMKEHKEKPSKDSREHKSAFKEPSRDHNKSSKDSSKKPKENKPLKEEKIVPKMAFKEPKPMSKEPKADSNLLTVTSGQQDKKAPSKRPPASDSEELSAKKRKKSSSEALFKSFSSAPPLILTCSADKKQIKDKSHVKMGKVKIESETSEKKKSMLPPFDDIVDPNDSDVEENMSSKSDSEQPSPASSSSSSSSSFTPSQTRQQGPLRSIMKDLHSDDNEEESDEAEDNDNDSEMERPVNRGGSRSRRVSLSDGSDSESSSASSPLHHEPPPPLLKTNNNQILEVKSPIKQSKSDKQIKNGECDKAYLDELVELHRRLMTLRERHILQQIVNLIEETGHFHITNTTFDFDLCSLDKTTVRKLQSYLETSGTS
UniProt Q9NQU5: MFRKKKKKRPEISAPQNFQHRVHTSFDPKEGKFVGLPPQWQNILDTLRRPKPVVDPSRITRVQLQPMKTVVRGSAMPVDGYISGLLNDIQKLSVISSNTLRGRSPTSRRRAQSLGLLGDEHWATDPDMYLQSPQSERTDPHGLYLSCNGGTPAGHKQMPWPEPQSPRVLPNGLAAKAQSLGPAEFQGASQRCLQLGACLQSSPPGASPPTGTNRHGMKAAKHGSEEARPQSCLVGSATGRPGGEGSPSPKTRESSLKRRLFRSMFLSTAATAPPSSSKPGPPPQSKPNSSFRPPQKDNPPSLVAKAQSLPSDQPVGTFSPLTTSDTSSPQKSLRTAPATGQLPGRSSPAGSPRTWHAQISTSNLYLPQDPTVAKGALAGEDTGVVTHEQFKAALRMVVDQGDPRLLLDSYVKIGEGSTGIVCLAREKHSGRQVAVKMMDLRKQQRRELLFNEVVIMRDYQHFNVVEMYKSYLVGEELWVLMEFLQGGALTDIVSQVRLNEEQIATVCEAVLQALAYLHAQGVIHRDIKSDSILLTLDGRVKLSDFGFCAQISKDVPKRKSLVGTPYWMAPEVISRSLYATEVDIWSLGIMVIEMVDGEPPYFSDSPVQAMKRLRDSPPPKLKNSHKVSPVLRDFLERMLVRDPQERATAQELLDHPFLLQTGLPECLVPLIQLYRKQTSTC

T2: GST-DBD (92–173) (human) (UniProt P10276)
T2 sequence: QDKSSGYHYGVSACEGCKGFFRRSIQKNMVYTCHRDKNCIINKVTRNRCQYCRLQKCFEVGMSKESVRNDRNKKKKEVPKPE

T3: GST-LBD (186–462) (human) (UniProt P10276)
T3 sequence: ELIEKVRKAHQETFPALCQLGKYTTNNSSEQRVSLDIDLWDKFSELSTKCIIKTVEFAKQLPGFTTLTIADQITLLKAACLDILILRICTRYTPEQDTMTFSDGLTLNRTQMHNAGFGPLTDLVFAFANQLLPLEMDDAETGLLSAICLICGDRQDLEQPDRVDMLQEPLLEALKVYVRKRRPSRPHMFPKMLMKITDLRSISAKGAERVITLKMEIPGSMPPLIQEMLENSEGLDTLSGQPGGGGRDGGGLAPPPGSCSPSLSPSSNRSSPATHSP

T4: RARα (endogenous, P19 cells) (mouse (endogenous in P19)) (UniProt P11416)
T4 sequence: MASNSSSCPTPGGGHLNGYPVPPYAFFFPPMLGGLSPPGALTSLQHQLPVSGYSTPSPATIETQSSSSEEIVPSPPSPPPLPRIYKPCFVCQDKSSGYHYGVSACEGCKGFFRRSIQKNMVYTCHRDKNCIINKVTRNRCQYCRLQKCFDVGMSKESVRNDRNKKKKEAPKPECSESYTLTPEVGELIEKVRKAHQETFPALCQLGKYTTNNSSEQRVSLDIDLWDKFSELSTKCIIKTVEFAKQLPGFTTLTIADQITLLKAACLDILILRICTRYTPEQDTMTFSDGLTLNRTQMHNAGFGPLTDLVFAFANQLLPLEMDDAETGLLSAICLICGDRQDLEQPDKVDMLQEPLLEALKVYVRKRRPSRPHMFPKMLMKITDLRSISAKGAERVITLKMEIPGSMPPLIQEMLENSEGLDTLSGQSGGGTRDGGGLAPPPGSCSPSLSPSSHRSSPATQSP


Tests used:
GST-AF-1 (1–92) (human) = target: T1, GST-AF-1 (1–92) (human); assay: pull-down; GST-RARα fusion proteins on beads (2 µg) incubated at 4°C for 4 hours, in the presence or absence of atRA, with 35S-methionine-labelled in vitro translated proteins; 20 mM Tris-HCl pH 7.9, 100 mM KCl, 0.1% NP-40; washes with 150 mM KCl and 0.3% NP-40; autoradiography; only the target purified
GST-DBD (92–173) (human) = target: T2, GST-DBD (92–173) (human); assay: as above
[1] = target: T3, GST-LBD (186–462) (human); assay: as above
[2] = target: T4, RARα (endogenous, P19 cells) (mouse (endogenous in P19)); assay: co-IP; endogenous proteins from P19 whole cell extracts; immunoprecipitation with anti-RAR (sc551), anti-Brd4 (Santa Cruz H250) or a mix of anti-AF9 antibodies (Bethyl); western blot with anti-Brd4 or anti-AF9

binding (GST-AF-1 (1–92) (human)) | binding (GST-DBD (92–173) (human)) | binding [1] | binding [2] | Molecule
binds | binds | no binding |  | 35S-labeled AF9 (from UniProt P42568 1-568)
 |  |  | binds | AF9 (endogenous, P19 cells) (from UniProt A2AM29 1-569)
no binding | binds |  |  | 35S-labeled PAK6 (from UniProt Q9NQU5 1-681)
no binding | binds | binds |  | 35S-labeled NAP1L2 (protein, UniProt Q9ULW6 1-460, 35S-methionine label) MAESENRKELSESSQEEAGNQIMVEGLGEHLERGEDAAAGLGDDGKCGEEAAAGLGEEGENGEDTAAGSGEDGKKGGDTDEDSEADRPKGLIGYVLDTDFVESLPVKVKYRVLALKKLQTRAANLESKFLREFHDIERKFAEMYQPLLEKRRQIINAIYEPTEEECEYKSDSEDCDDEEMCHEEMYGNEEGMVHEYVDEDDGYEDYYYDYAVEEEEEEEEEDDIEATGEENKEEEDPKGIPDFWLTVLKNVDTLTPLIKKYDEPILKLLTDIKVKLSDPGEPLSFTLEFHFKPNEYFKNELLTKTYVLKSKLAYYDPHPYRGTAIEYSTGCEIDWNEGKNVTLKTIKKKQKHRIWGTIRTVTEDFPKDSFFNFFSPHGITSNGRDGNDDFLLGHNLRTYIIPRSVLFFSGDALESQQEGVVREVNDAIYDKIIYDNWMAAIEEVKACCKNLEALVEDIDR
